Source: PubChem BioAssay AID1508649 (National Center for Advancing Translational Sciences (NCATS), 2021)
In all, about 43,000 compounds went through this assay and about 830 (1.9%) were called active. Inconclusive means that the source gave no clear call. Such entries were picked first, then a sample of the others. How the source made its calls: active means clear falling dose curves in both reporters; inconclusive means both reporters move, but less clearly or upward; inactive means either reporter flat; the % is the NLuc reporter signal. Potencies of inconclusive entries are left out as doubtful fits.

experiment: Cell-based coincidence reporter assay to measure PMP22 gene transcription in S16 Pmp22-F2sN cells - Primary screen; details: S16 Pmp22-F2sN Schwann cells (luciferase reporters placed in the Pmp22 gene), FLuc/NLuc coincidence luminescence, 24 h; measured here: NLuc reporter readout, at 57.5 µM (top of the series)
Summary of the method: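 S16 Schwann cells carrying FLuc/NLuc coincidence reporter in the Pmp22 3' UTR treated with compound 24 h at 37C; FLuc then NLuc luminescence read sequentially by dual-luciferase reagents.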
Potency means the concentration at half of the fitted maximal effect; tags describe the fitted curve by direction and shape.

Structure (SMILES)	Potency
COc1ccccc1N1CCN(CCCNC(=O)c2nnc(Cc3c(F)cccc3Cl)o2)CC1	active: 13.4 µM
CCCN(CCC)CC(O)Cn1cc(/C=C/C(=O)c2ccc(OC)cc2)c2ccccc21 (stereo not drawn)	inconclusive [phenotype inactive, partial curve]
CCc1cccc(NC(=O)Cn2c(=O)c(C(F)(F)F)nc3ccccc32)c1	inconclusive [phenotype inactive, single point]
Cc1ccc(CNS(=O)(=O)c2ccc(-c3cnc(C4CC4)o3)cc2)cc1	inconclusive [phenotype inactive, single point]
COc1ccc(Cl)cc1NC(=O)Cc1coc2c(C)c(C)ccc12	inconclusive [phenotype inactive, single point]
N=c1n(CCO)c2ccccc2n1Cc1ccccc1F	inconclusive [phenotype inactive, single point]
CCC(NC(=O)Nc1cc(Cl)ccc1OC)c1c(-n2cccc2)sc2c1CCN(C)C2 (stereo not drawn)	inconclusive [phenotype inactive, partial curve]
CCOc1ccc(-c2c(C)nn3c(C)c(C(=O)NCc4ccc(Cl)cc4)cnc23)cc1OCC	inconclusive [phenotype inactive, single point]
Cc1ccc(C)c(Cn2c(=O)n(CCC(=O)NCc3ccc4c(c3)OCO4)c(=O)c3sccc32)c1	inconclusive [phenotype inactive, single point]
COc1ccc(OC)c(NC(=O)CSC2=Nc3ccccc3C3=NC(CC(=O)NCc4ccc(F)cc4)C(=O)N23)c1 (stereo not drawn)	inconclusive [phenotype inactive, single point]
O=C(CNC(=O)c1ccccc1F)OCc1cc(=O)n2nc(C3CCCCC3)sc2n1	inconclusive [phenotype inactive, single point]
O=S(=O)(c1ccc(-c2csc(=Nc3ccc(OC(F)(F)Cl)cc3)n2CCCO)cc1)N1CCCC1	active: 15 µM
O=S(=O)(Nc1cc(F)ccc1F)c1ccc2[nH]c3c(c2c1)CCCCC3	inconclusive [phenotype inactive, single point]
CCOc1ccc(CCNC(=O)CN2C(=O)COc3ccc(S(=O)(=O)N4CCCCCC4)cc32)cc1	inconclusive [phenotype inactive, single point]
COc1cc(CCNC(=O)c2ccc3c(c2)c(C)c(C)n3Cc2cccc(C)c2)cc(OC)c1OC	inconclusive [phenotype inactive, partial curve, poor fit]
CCOc1ccc(C2c3c(oc4ccc(C)cc4c3=O)C(=O)N2CCCN(C)C)cc1 (stereo not drawn)	inconclusive [phenotype inactive, partial curve, poor fit]
COc1cc(OC)c(NC(=O)c2nn(-c3ccc(C)cc3)c(=O)c3c2c2ccccc2n3C)cc1Cl	inconclusive [phenotype inactive, single point]
COc1ccc(-c2cc(=O)c3cc(OCC(=O)OC(C)C)ccc3o2)cc1	inactive
Oc1ccc(-c2nc(-c3ccccc3)c(-c3ccc(Br)cc3)[nH]2)cc1	inconclusive [phenotype inactive, single point]
Cc1cc(C)c(NC(=O)CCn2c(=O)c3cccn3c3ccccc32)c(C)c1	inconclusive [phenotype inactive, single point]

Structure (SMILES)	Potency
COc1ccc(-c2csc3nc(-c4ccc(F)cc4)oc(=O)c23)cc1OC	inconclusive [phenotype inactive, partial curve]
CCN(CC)C(=O)Cn1c(=O)n(CCCCCC(=O)Nc2ccccc2)c(=O)c2sccc21	inconclusive [phenotype inactive, partial curve, poor fit]
COc1ccc(OC)c(NC(=O)CSc2nccn2-c2cc(C)cc(C)c2)c1	inconclusive [phenotype inactive, partial curve, poor fit]
Cc1cccc(NC(=O)CSc2nc(C)cc(C)c2C(=O)Nc2ccc(Cl)cc2)c1	inconclusive [phenotype inactive, single point]
Cc1cc(C)cc(NC(=O)Cn2c(=O)n(CCC(C)C)c(=O)c3cccnc32)c1	inconclusive [phenotype inactive, partial curve, poor fit]
CCN1CCN(c2cc(C)c3cc(NC(=O)c4cc(OC)c(OC)c(OC)c4)ccc3n2)CC1	inactive
COc1cccc(-c2nc(S(=O)(=O)c3ccc(C)cc3)c(NCc3ccccc3)o2)c1	inconclusive [phenotype inactive, single point]
COC(=O)c1ccc(NC(=O)CN(C)S(=O)(=O)c2ccc3c(c2)CCCC(=O)N3)cc1	inconclusive [phenotype inactive, single point]
CCOc1ccc(-n2c(=O)c3c(C)c(C)sc3n(Cc3ccc(C(C)(C)C)cc3)c2=O)cc1	inconclusive [phenotype inactive, single point]
CCc1ccc(-c2cc(C)no2)cc1S(=O)(=O)NCc1ccc(OC)cc1	active: 6.05 µM
CCCOc1ccc(C(=O)Nc2ccc(NC(=O)c3ccc(Br)cc3)cc2)cc1	inactive
Cc1ccc(NS(=O)(=O)c2ccc3[nH]c4c(c3c2)CCCCCC4)cc1C	inconclusive [phenotype inactive, single point]
CCN(CC)C(=O)c1sc2c(c1C)c(=O)n(Cc1ccccc1)c(=O)n2Cc1c(C)cc(C)cc1C	inconclusive [phenotype inactive, partial curve]
CCOc1ccc(-c2cc(CCCC(=O)NCCc3ccc(SC)cc3)no2)cc1	inactive
CCOc1ccccc1NC(=O)CN(c1cc(C)cc(C)c1)S(=O)(=O)c1c(C)nn(C)c1C	inconclusive [phenotype inactive, single point]
CCOC(=O)c1ccccc1NC(=O)CSc1cn(CC(=O)N2CCCCCC2)c2ccccc12	inconclusive [phenotype inactive, single point]
COc1ccc(Nc2nc3c(S(=O)(=O)c4ccc(C)cc4)nnn3c3ccsc23)cc1Cl	active: 8.97 µM
COc1ccc(NC(=O)C2CCN(S(=O)(=O)c3c(C)noc3/C=C/c3ccc(C)cc3)CC2)cc1Cl	inactive
Cc1cccc(-n2c(-c3ccco3)nc3c(cnn3-c3ccc(F)cc3)c2=O)c1	inconclusive [phenotype inactive, single point]
CCS(=O)(=O)NCCc1csc2nc(-c3ccc(C)cc3)nn12	inactive

Structure (SMILES)	Potency
Cc1ccc(C)c(NC(=O)Nc2csc3c2CCCC3)c1	inconclusive [phenotype inactive, single point]
O=C(NCc1ccc(F)cc1)C(=O)NCC(c1cccs1)S(=O)(=O)c1cccs1 (stereo not drawn)	inconclusive [phenotype inactive, single point]
CCOC(=O)c1cccc(NC(=O)c2nn(-c3ccc(OC)cc3)c(=O)c3c2c2ccccc2n3C)c1	inconclusive [phenotype inactive, partial curve, poor fit]
CC(C)(C)NC(=O)CCSc1nc(-c2ccc3c(c2)OCO3)cc(C(F)(F)F)n1	inconclusive [phenotype inactive, single point]
CCOc1ccc(S(=O)(=O)NCC(c2cccs2)S(=O)(=O)c2ccc(C)cc2)cc1 (stereo not drawn)	inconclusive [phenotype inactive, single point]
CCc1ccc(OCC(=O)Nc2ccc3oc(-c4ccc(OC)cc4)nc3c2)cc1	inactive
O=S(=O)(NCCc1nnc2ccc(SCc3c(F)cccc3Cl)nn12)c1ccccc1	inconclusive [phenotype inactive, single point]
Cc1ccc(-n2ncc3c(N4CCCCCC4)ncnc32)cc1C	inactive
CCOc1ccccc1N1CC(c2nc3ccccc3n2CCCCOc2cc(C)ccc2C)CC1=O (stereo not drawn)	inactive
CCCCOc1ccc(CN2C(=O)C(=O)c3cc(C)ccc32)cc1OC	active: 8.8 µM
COc1ccc(OC)c(NC(=O)[C@H](Cc2ccccc2)N2Cc3ccccc3C2=O)c1	inactive
COC(=O)c1c(NC(=O)COc2ccc(OC)cc2)sc2c1CCC(C)C2 (stereo not drawn)	inconclusive [phenotype inactive, partial curve]
N#CC1=C2SCN(C3CCCCC3)CN2C(=O)CC1c1ccc(F)cc1 (stereo not drawn)	inconclusive [phenotype inactive, single point]
CC1C(=O)N2CCCc3cc(S(=O)(=O)Nc4ccc(Br)cc4F)cc1c32 (stereo not drawn)	inactive
O=C(Nc1cccc(C(F)(F)F)c1)c1ccc(F)c(S(=O)(=O)N2CCc3ccccc3C2)c1	inactive
O=C(CCn1cnnn1)Nc1ccccc1	inconclusive [phenotype inactive, single point]
COc1ccc(C)cc1NC(=O)C1CCN(S(=O)(=O)c2cccc3nonc23)CC1	inconclusive [phenotype inactive, partial curve, poor fit]
O=C(/C=C/c1cn(CC(O)CN2CCc3ccccc32)c2ccccc12)c1ccc(Br)cc1 (stereo not drawn)	inconclusive [phenotype inactive, single point]
